# Experimental data: PubChem BioAssay AID624171 (National Center for Advancing Translational Sciences (NCATS), 2012)
# Screen size: about 410,000 compounds; about 1,200 (0.29%) were called active. The shares of active, inactive and inconclusive entries below differ from those in the screen. Calls follow the shape of the dose curve; as a rule, active = well fitted activation curve with a large enough effect; inconclusive = small, poorly fitted or top-dose-only effect; inactive = flat fitted curve, though single readings scatter. Potencies beside an inconclusive call are fits to weak or partial responses and may not hold up.
# Experiment: qHTS of Nrf2 Activators; also: nearly all actives have a fitted effect of over 65% in size; as to activation: % of control where 0% means no effect
# Conditions: AREc32 ARE-luciferase reporter (MCF7-derived line), luminescence, 24 h; activation: at 46.1 µM (top of the series)
# Procedure, shortened: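 For detection, Steady-Glo was added and plates sat 30 min at RT; before that, AREc32_Fluc cells grown overnight in OPTI-MEM/5% FBS had been treated with 23 nL compound for 24 hr at 37 deg C.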
# Potency is read from the fitted curve at half-maximal effect; tags tell the direction and shape of the fitted curve.
SMILES,activation,Potency
CCOc1ccc(NS(=O)(=O)c2ccc(NC(=S)NC(=O)CC(C)C)cc2)cc1,inactive: 4.24%,–
CCOc1ccc(-n2nc(CO)c(C(=O)NCc3ccccn3)n2)cc1,inactive: 5.75%,–
[O-][N+]1=c2ccc(Nc3ccccc3)cc2=NC12CCCCC2,inactive: -2.56%,–
O=S(OCCN1CCCC1)C(c1ccccc1)c1ccccc1 (stereo unspecified),–,"inconclusive: 25.1 µM [activator, single point]"
Cc1cc(NC(=O)CSc2nnc(-c3cccnc3)n2Cc2ccccc2)no1,inactive: -0.607%,–
CCCCS(=O)(=O)c1oc(-c2cccs2)nc1S(=O)(=O)c1ccc(F)cc1,–,"inconclusive: 3.98 µM [activator, single point]"
O=c1[nH]c2ccccc2nc1/C=C/c1ccc(F)cc1,–,"inconclusive: 14.1 µM [activator, partial curve, poor fit]"
COc1ccc(CCNC(=O)c2cc(-c3ccco3)on2)cc1OC,–,"inconclusive: 15.8 µM [activator, partial curve, poor fit]"
CC(=O)NC1Sc2ccccc2N=C1c1ccccc1 (stereo unspecified),–,"inconclusive: 20 µM [activator, single point]"
COc1cccc(OCc2ccc(Cl)cc2)c1C#N,inactive: 16.9%,–
O=c1c(Br)c(Br)cnn1-c1ccccc1,–,"inconclusive: 3.16 µM [activator, single point]"
O=[N+]([O-])c1ccc2nc(-c3ccncc3)[nH]c2c1,–,"inconclusive: 20 µM [activator, single point]"
O=C1c2ccccc2C(=O)C1c1ccnc2ccccc12,–,"inconclusive: 0.562 µM [activator, full curve, poor fit]"
Nc1nc(-c2ccccc2)cc(-c2ccccc2)n1,–,"inconclusive: 12.6 µM [activator, partial curve, poor fit]"
CCN(CC)C(=O)Cn1c(=O)n(-c2ccc(C)c(C)c2)c(=O)c2c(C)c(C(=O)N(CC)CC)sc21,inactive: 1.45%,–
Cc1ccc(NC(=O)CCC(=O)NNC(=O)COc2ccc([N+](=O)[O-])cc2)c(C)c1,inactive: 0.0787%,–
COC(=O)c1ccc(NS(=O)(=O)c2ccc3c(c2)n(C)c(=O)n3C)cc1,inactive: 2.4%,–
COc1ccccc1Cc1c(-c2ccco2)nc2c(C)cc(Br)cn12,–,"inconclusive: 3.55 µM [activator, single point]"
COc1ccc(OC)c(-c2csc(-c3cccs3)n2)c1,–,"inconclusive: 17.8 µM [activator, partial curve, poor fit]"
COc1cccc(Nc2nc(C(N)Cc3ccccc3)cs2)n1 (stereo unspecified),inactive: -0.733%,–
COC(=O)C1Cc2ccccc2CN1C(=O)CCl (stereo unspecified),–,"inconclusive: 22.4 µM [activator, single point]"
